# Among all 310,000 compounds or so, about 14,000 (4.5%) showed an effect of 50% or more. Effects have a minus sign here. This is one part of the list.
# Target: human ether-à-go-go-related gene (hERG) potassium channel (human, UniProt Q12809)
# Experiment: primary screen, population patch clamp on CHO cells stably expressing hERG
# 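Also: peak tail current of the secondary pulse compared with the same well before compound.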
# human ether-à-go-go-related gene (hERG) potassium channel, sequence (Q12809 whole entry, looked up): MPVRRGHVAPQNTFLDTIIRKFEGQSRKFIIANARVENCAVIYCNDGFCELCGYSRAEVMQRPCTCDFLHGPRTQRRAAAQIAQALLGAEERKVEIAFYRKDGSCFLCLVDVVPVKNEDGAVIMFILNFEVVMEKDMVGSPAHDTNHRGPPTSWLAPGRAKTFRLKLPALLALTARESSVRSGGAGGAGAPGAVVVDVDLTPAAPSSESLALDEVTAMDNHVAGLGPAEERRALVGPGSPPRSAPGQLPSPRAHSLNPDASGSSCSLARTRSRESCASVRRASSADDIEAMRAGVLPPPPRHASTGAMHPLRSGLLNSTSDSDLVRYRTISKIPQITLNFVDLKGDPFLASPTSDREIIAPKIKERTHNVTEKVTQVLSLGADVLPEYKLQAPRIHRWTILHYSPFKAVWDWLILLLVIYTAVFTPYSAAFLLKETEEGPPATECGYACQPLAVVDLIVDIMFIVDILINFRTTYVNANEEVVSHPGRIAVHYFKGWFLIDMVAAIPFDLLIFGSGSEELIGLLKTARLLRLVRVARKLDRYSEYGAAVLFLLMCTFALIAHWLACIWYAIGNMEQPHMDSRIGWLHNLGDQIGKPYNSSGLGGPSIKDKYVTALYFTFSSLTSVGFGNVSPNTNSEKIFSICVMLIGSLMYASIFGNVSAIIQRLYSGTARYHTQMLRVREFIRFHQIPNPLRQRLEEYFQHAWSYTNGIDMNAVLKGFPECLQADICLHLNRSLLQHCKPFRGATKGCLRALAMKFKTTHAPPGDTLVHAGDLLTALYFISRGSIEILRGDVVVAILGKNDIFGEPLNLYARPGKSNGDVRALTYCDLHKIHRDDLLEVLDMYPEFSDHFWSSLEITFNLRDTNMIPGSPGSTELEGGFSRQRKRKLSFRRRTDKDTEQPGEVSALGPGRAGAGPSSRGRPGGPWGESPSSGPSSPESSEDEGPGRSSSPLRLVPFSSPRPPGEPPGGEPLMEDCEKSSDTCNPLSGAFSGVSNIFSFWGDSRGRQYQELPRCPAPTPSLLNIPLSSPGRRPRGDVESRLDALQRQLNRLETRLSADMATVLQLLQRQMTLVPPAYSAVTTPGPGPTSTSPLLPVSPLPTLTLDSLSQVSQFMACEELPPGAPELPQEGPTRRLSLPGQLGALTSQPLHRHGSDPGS
row,Structure (SMILES),"hERG current change (%, negative = inhibition) at 10uM [%]"
1,CCOc1ccc(CCNC(=O)CCNC(=O)c2ccc(Br)cc2)cc1OCC,4.21
2,Cc1ccc(CS/C(Nc2ccccc2C)=C(\C#N)C(N)=O)c(C)c1,7.74
3,CC(C)CNC(=O)CC(c1ccccc1)c1ccccc1,8.26
4,CC1=C(c2ccccc2)[N+](=O)C2(CCCC2)N1[O-],10.3
5,Cc1cc(C)c(NC(=O)CN2CCOCCOCCOCCOCC2)c(C)c1,-2.32
6,Cc1ccc(-c2cc(-c3ccccc3)nc(N(C)N)n2)cc1,16.7
7,CC(C)(C)NC(=S)NCc1ccncc1,-4.31
8,CC(C)Cc1nnc(NC(=O)CCC(=O)NCc2ccccc2Cl)s1,18.4
9,CCOC(=O)C1=C(CSc2nccn2C)NC(=O)NC1c1ccc2c(c1)OCO2 (stereo not drawn),3.27
10,CC(=O)c1ccc(NC(=O)C2(S(=O)(=O)c3ccccc3)CC2)cc1,-2.55
11,COc1ccc2oc(C(=O)OCC(=O)NC3(C#N)CCCC3)c(C)c2c1,1
12,CSc1nnc2c(n1)OC=Nc1ccccc1-2,-3.17
13,COc1ccccc1N(C(=O)c1snc(C(N)=O)c1N)C(C(=O)NC1CCCC1)c1ccco1 (stereo not drawn),-35.4
14,Cc1ccc2nc(SCc3nnc(-c4cccs4)o3)[nH]c2c1,-26.4
15,CC(=O)N[C@@H](Cc1c[nH]c2ccccc12)C(=O)NCc1ccccc1,13.3
16,CCOC(=O)N1CCN(S(=O)(=O)c2cc3c(cc2C)NC(=O)CO3)CC1,-36.2
17,O=C(Oc1ccc2ccc(OC(=O)N3CCOCC3)cc2c1)N1CCOCC1,-6.64
18,COc1cc(C(=O)C(=O)c2ccc(O)c(OC)c2)ccc1O,8
19,CSc1ccccc1C(=O)C1CCCN(C(=O)c2cc(C(C)C)no2)C1 (stereo not drawn),-69.6

row,Structure (SMILES),"hERG current change (%, negative = inhibition) at 10uM [%]"
1,Cc1ccc(S(=O)(=O)N(CC(=O)NCc2ccncc2)Cc2ccc(F)cc2)cc1,-79.2
2,COC(=O)C1=C(C)n2cnnc2NC1c1ccc(Cl)cc1 (stereo not drawn),0.784
3,Brc1ccc(C=Nc2ccc3c(c2)OCCOCCOCCO3)s1,-66.2
4,Cc1ccc(-n2cc(CN(C)Cc3ncc[nH]3)c(-c3cccc(C)c3)n2)cc1,-34.8
5,COc1ccc(OCC(=O)N2CCN(c3nnc(-c4ccc(C)cc4)c4ccccc34)CC2)cc1,-44.9
6,O=C(OCCCCN1C(=O)c2ccccc2C1=O)c1n[nH]c2ccccc12,-8.86
7,Cc1cc(C)c(NC(=O)CCCN2CCOCC2)c(C)c1,13.1
8,CCOC(=O)C1=NNC2(c3ccc(Cl)cc3)C(=O)N(c3ccc(C)cc3)C(=O)C12 (stereo not drawn),11.9
9,CCC(C)(C)NC(=O)C(c1ccc(OC)cc1)N(C(=O)CCC(=O)Nc1cc(C)on1)c1ccc(OC)c(OC)c1 (stereo not drawn),3.38
10,O=C(CN(Cc1ccco1)S(=O)(=O)c1ccccc1)N/N=C/c1ccccc1C(=O)O,19.6
11,COc1ccc(NC(=O)CSc2ccc(-c3ccccn3)nn2)cc1OC,-23.1
12,CCOC(=O)C1=NOC(CNC(=O)C2=NOC(CNC(=O)c3c(-c4ccccc4Cl)noc3C)C2)C1 (stereo not drawn),-12.1
13,CCCCc1c(O)nc(SCC(=O)O)[nH]c1=O,40.9
14,COc1ccc(CCNC(=O)Cc2ccsc2)cc1,18.9
15,O=C(NCCS(=O)(=O)NCc1ccco1)c1ccccc1,3.68
16,COc1ccc(/C=C/C(=O)Nc2ccc3nc4n(c(=O)c3c2)CCCC4)cc1OC,-8.54
17,O=C(Nc1cccc(NC(=O)c2ccccc2F)c1)c1ccccc1,8.73
18,CCN1CCc2c(sc(NC(=O)C3CCCCC3)c2C(=O)OC)C1.Cl,-17.4
19,CCCCCCCSc1nnc(N)s1,9.7

row,Structure (SMILES),"hERG current change (%, negative = inhibition) at 10uM [%]"
1,O=C(c1cnsn1)N1CCN(c2ccccn2)CC1,10.6
2,C/C(=N\N=C1/NC(=O)C(C)S1)c1ccc([N+](=O)[O-])cc1 (stereo not drawn),-1.14
3,CCn1c(CCc2ccccc2)n[nH]c1=S,14.9
4,CCc1cccc(OCC(=O)N(C)CC(=O)Nc2cccc(F)c2)c1,-9.84
5,COc1ccc2cc(C3c4cc(OC)c(OC)cc4CCN3C(=O)c3ccco3)c(=O)[nH]c2c1 (stereo not drawn),-34.2
6,COc1ccc([N+](=O)[O-])cc1NC(=O)CC(c1ccccc1)c1ccccc1,-2.25
7,O=C(c1cccc([N+](=O)[O-])c1)N1CCN(C/C=C/c2ccccc2)CC1,-65.9
8,N#CCC(=O)N/N=C\c1ccc(OC/C=C/c2ccccc2)cc1,14.4
9,CCN(CC)CCSc1nnc2c3ccccc3n(Cc3ccccc3)c2n1,-75.4
10,Cc1onc(-c2c(Cl)cccc2Cl)c1C(=O)N=C(N)N1CCOCC1,2.58
11,COc1ccc(/C=N/Nc2cc(C)nc(N)n2)cc1,-32.1
12,CC(=O)C1=C(C)Nc2ncnn2C1c1ccccc1Cl (stereo not drawn),-7.14
13,COc1ccc(OC)c(/C=C(\C)C(=O)c2c(C)cc(C)[nH]c2=O)c1,7.34
14,CS(=O)(=O)Nc1ccc(C(=O)Nc2ccc3c(c2)OCCO3)cc1,3.97
15,C/C=C/C=C/C(=O)N1CC2(CC(c3cccc(NC(=O)/C=C/C)c3)=NO2)C[C@@H]1C(N)=O (stereo partly drawn),2.75
16,Cc1cccc(NC(=O)c2cccs2)n1,9.15
17,CCCc1ccc(OCc2ccc(C(=O)N/N=C/c3cccc([N+](=O)[O-])c3)o2)c(OC)c1,5.51
18,COc1ccc(N(C(C)=O)S(=O)(=O)c2cc(OC)ccc2OC)cc1,-7.46
19,COc1ccc([N+](=O)[O-])cc1NC(=O)CSc1ccccc1,-13.8

# From paper PMC4336329 (PLoS ONE, 2015)
